Assay results reported in the supplement of paper PMC3656093.
“And” between values parts separate entries of the source, which are not always exact repeats. Identical values can stand only once. ± gives the standard deviation of the averaged measurements. The full ranking holds about 1,900 compounds; the median of “CD40L-induced NF-kB luciferase activity, plate-corrected, relative to DMSO (0) and IKK inhibitor VII (-100) controls” is about 0.032, and the lowest 2% start at about -26. Some of the results follow.

The compounds below were run on BL2-NFkB-Luc (assay: CD40L-induced NF-kB luciferase activity, plate-corrected, relative to DMSO (0) and IKK inhibitor VII (-100) controls (% normalized activity); higher = more NF-kB reporter activity (less inhibition)). Conditions: 9.4 µM; stimulus: tCD40L 64 ng/ml; 4.5 h.
Protocol: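 BL2 B cells with a stable NF-kB response-element luciferase reporter (BL2-NFkB-Luc), 384-well. Cells were pre-incubated with compound at 9.4 uM for 1 h at 37 C, then stimulated with 64 ng/ml trimerized CD40L for 4.5 h; luciferase was read with Steady-Glo. Signal was normalised per plate in Genedata (median DMSO neutral control = 0, median IKK inhibitor VII at 50 uM = -100) with Assay Median plate-pattern correction; duplicate plates.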

Structure (SMILES) | CD40L-induced NF-kB luciferase activity
CC(=O)Nc1cc(O)cc(O)c1 | -0.191 ± 1.3
Cc1nnc(SCC(=O)N2CCCC(C(=O)c3ccc(Cl)cc3)C2)o1 (stereo unspecified) | 1.57 ± 0.7
CCn1c2ccccc2c2cc(CC(N)=O)ccc21 | -1.45 ± 1.4
CCn1c(/C=C/c2ccccc2)nc2ccccc2c1=O | 4.25 ± 3.8
O=C(Nc1nc2ccccc2s1)c1ccc(F)cc1 | 41.8 ± 8.4
COc1ccc(/C=C/C(=O)NC(=S)NN2CCCCC2c2cccnc2)cc1 (stereo unspecified) | 1.59 ± 3.4
COc1ccc(OC(C)C(=O)Nc2ccccc2F)cc1 (stereo unspecified) | 3.77 ± 0.15
CC(C)COCC(CN(Cc1ccccc1)c1ccccc1)N1CCCC1 (stereo unspecified) | 1.3 ± 2
CC(C)OC(=O)C1C2C=CC3(CN(CC4CCCO4)C(=O)C13)O2 (stereo unspecified) | -1.72 ± 3.7
COc1cc2c(cc1OC)C(c1ccc(-c3cc(Cl)ccc3Cl)o1)=NCC2 | -21.6 ± 0.51
CC(CCCC(C)(C)O)NC(=O)c1ccc(OC2CCN(C(=O)C3CC3)CC2)cc1 (stereo unspecified) | 1.52 ± 2
COc1cc(OC)cc(C(C)=O)c1 | -2.98 ± 1.2
Cc1ccc2[nH]c3c(c2c1)CN(C(=O)CN1CCSCC1)CC3 | 3.7305 ± 0.0021
NCCOc1ccccc1OCCN | -0.756 ± 1.2
Cc1ccc(-n2ncc3c(Nc4cccc(C(=O)O)c4)ncnc32)cc1 | 12.4 ± 6.6
O=C(CS(=O)(=O)Cc1ccccc1)NCc1ccc2c(c1)OCO2 | -3.03 ± 2.5
CCCCOC(=O)c1ccc(N)cc1 | 25.3 ± 1.5
O=C(Nc1cccc(-c2nc3ncccc3o2)c1)c1ccccc1 | 18.4 ± 0.69
O=C(NCCCCCc1nc2ccccc2[nH]1)c1ccccc1Cl | -2.51 ± 3.2
COc1ccc2oc(=O)c(C(=O)N3CCN(c4ccccc4)CC3)cc2c1 | 19.5 ± 0.31
Cc1ccsc1C1NC(=O)c2ccccc2N1 (stereo unspecified) | 17 ± 6.1
COc1ccc(OC(C)C(=O)Nc2ccc([N+](=O)[O-])cc2)cc1 (stereo unspecified) | -0.769 ± 2.6
CCOc1ccc2ccccc2c1CNc1nnnn1C | 6.61 ± 2
Cc1ccc2ncnc(NCCCCCC(=O)O)c2c1 | 1.46 ± 3.8

Structure (SMILES) | CD40L-induced NF-kB luciferase activity
CC(C)Oc1ccc(C(CC(=O)O)c2ccc(F)cc2)cc1 (stereo unspecified) | 4.87 ± 0.57
O=C(c1ccco1)N(CCC(c1ccccc1)c1ccco1)Cc1ccco1 (stereo unspecified) | -2.31 ± 2.8
CO[C@@]1(NC(=O)Cc2cccs2)C(=O)N2C(C(=O)O)=C(COC(N)=O)CS[C@@H]21 | 0.75 ± 1.5
O=C(c1cc2cc(Br)ccc2o1)N1CCCCC1 | 66.7 ± 7.9
O=C(O)CCSCCC(=O)O | 0.0797 ± 0.66
COc1ccc(CCN2CNc3c(c(=O)n(C)c(=O)n3C)C2)cc1OC | -3.52 ± 5.4
COc1ccc(CN(CCC(c2ccccc2)c2ccc(OC(C)C)cc2)C(=O)CCl)cc1OC (stereo unspecified) | -0.026 ± 5.1
CC(C)OC(=O)C1C(=O)CC(C)(O)C(C(=O)OC(C)C)C1c1cccc(O)c1 (stereo unspecified) | -1.77 ± 1.2
COc1cc(Cc2cnc(N)nc2N)cc(OC)c1OC | 2.83 and 2.74
CC(CCc1ccccc1)NC(=O)/C=C/c1ccccc1 (stereo unspecified) | 7.27 ± 1.9
CC(C)(C)OC(=O)N1CCCC1C(=O)NC(Cc1ccccc1)C(=O)O (stereo unspecified) | 1.85 ± 0.87
CC[N+]1(C)CC2CCC(C)(C1)C2(C)C (stereo unspecified) | 3.62 ± 0.84
COCCn1c(SCCOc2ccccc2)nc2ccccc2c1=O | -6.31 ± 2
COC(=O)c1cc(OC)c(OC)cc1NC(=O)Nc1ccc(OC)cc1OC | -0.98 ± 1.1
O=C(COc1ccccc1)N1CCN(c2ccccc2)CC1 | -1.73 ± 4.1
COc1ccc(-c2c[n+](CC(=O)OC3CC(C)CCC3C(C)C)c3n2CCC3)cc1 (stereo unspecified) | -4.45 ± 0.4
COc1cc(C(=O)OCCn2c(=O)c3c(ncn3CCN(C)C)n(C)c2=O)cc(OC)c1OC | -3 ± 1.3
COc1ccc(CN2CCC(=O)NC2=O)cc1 | 4.64 ± 6
C#C[C@]1(O)CC[C@H]2[C@@H]3CCc4cc(OC5CCCC5)ccc4[C@H]3CC[C@@]21C | 1.12 ± 8.5
CN(C)CCC=C1c2ccccc2CCc2ccccc21 | -1.99 ± 3.8
Cc1ccnc2c1NC(=O)c1cccnc1N2C1CC1 | -6.86 ± 6.4
Cn1c(=O)c2[nH]cnc2n(C)c1=O | 3.7 ± 1.2
CCOC(=O)C1C2C=CC3(CN(c4ccc(Cl)c(F)c4)C(=O)C13)O2 (stereo unspecified) | -3.38 ± 0.57
COc1ccc(CNCCC(c2ccc(F)cc2)c2ccc(OC(C)C)cc2)cc1OC (stereo unspecified) | -4.66 ± 12

Structure (SMILES) | CD40L-induced NF-kB luciferase activity
COc1c(C)cc(C(=O)C2CCCN(Cc3ccc(Oc4ncccn4)cc3)C2)cc1C (stereo unspecified) | -10.3 ± 4.3
CC(C)COCC1CC2(CC(C)(c3csc(N)n3)OC2=O)C(=O)O1 (stereo unspecified) | 3.24 ± 5.5
C[C@]12CC[C@H]3C(=CCc4cc(O)ccc43)[C@@H]1CCC2=O | 9.18 ± 7
CCOC(=O)C1=C(N)Oc2c(oc(CO)cc2=O)C1c1ccc(F)c(F)c1 (stereo unspecified) | 0.569 ± 3.4
CCc1ccc2oc(=O)cc(CN3CCC(C)CC3)c2c1 | 1.94 ± 3.7
Cc1ncc([N+](=O)[O-])n1CC(O)CCl (stereo unspecified) | 2.48 ± 3.2
Nc1ccc(S(N)(=O)=O)cc1N | 3.48 ± 1
Cc1cccc(C)c1NC(=O)C1CCCCN1C (stereo unspecified) | -0.386 ± 0.61
CCOC(=O)c1c(C)oc2cc(Br)c(OC(C)C(=O)OCC)cc12 (stereo unspecified) | 0.454 ± 1.2
COc1ccc(C2C(=O)c3ccccc3C2=O)cc1 | 0.868 ± 0.29
CC(=O)Oc1ccc2c(=O)c(Oc3ccccc3[N+](=O)[O-])coc2c1 | 5.53 ± 3.6
CC(C)(S)[C@@H](N)C(=O)O | -6.24 ± 3.3
COc1ccc(C(=O)Nc2ncc3c(n2)CC(C)CC3=O)cc1 (stereo unspecified) | 11.6 ± 4.2
C=C(C)c1nc2cc(OC)c(OC)cc2c(=O)o1 | -30.6 ± 9.3
CC(=O)O[C@H]1CSC[C@H]1NC(=O)c1ccccc1 | 2.65 ± 7.7
O=C1CCCC(=O)C1=Cc1c[nH]c2ccccc12 | -7.53 ± 0.79
COC(=O)c1cc(-c2c(C)oc3cc(OC)ccc3c2=O)c(C)o1 | 1.37 ± 6.7
COC(=O)c1[nH]c2ccccc2c1NC(=O)CN1CCN(C/C=C/c2ccccc2)CC1 | -0.625 ± 8.3
COc1ccc(-c2cc(=O)oc3c(C)c(O)c(CN(C)C)cc23)cc1 | -15.2 ± 1.7
O=Cc1ccc(O)c(O)c1 | -3.1 ± 0.27
C[C@H](NC(=O)NCCc1ccccc1)C(=O)O | -5.96 ± 5.1
CC(C)(C)C(=O)NCCCNc1ccc([N+](=O)[O-])cc1 | 7.16 ± 1.3
CN1CCCN=C1COC(=O)C(O)(c1ccccc1)C1CCCCC1 (stereo unspecified) | -2.5 ± 2.7
Cc1cc(C)cc(Nc2nc3c([nH]2)c(=O)n(C)c(=O)n3C)c1 | -2.98 ± 0.36

Structure (SMILES) | CD40L-induced NF-kB luciferase activity
C=CCC1(Cl)C(=O)C(Cl)=C(N2CCOCC2)C1(OC)OC (stereo unspecified) | 4.5 ± 3.7
CCC(=O)c1ccc(O)cc1 | -2.02 ± 12
COc1ccc(C(C)=O)c2c1OCCO2 | 0.693 ± 3.3
Cn1c(=S)n(C)c2ccccc21 | -1.98 ± 2.4
CCOc1ccc(N2C(=O)CC(NCCNc3ccc([N+](=O)[O-])cn3)C2=O)cc1 (stereo unspecified) | -0.123 ± 2.1
CC(=O)O[C@H]1C[C@@]2(C)[C@@H](C[C@@H](O)[C@H]3[C@@]4(C)CC[C@@H](O)[C@@H](C)C4CC[C@@]32C)/C1=C(\CCC=C(C)C)C(=O)O (stereo partly specified) | -1.41 ± 3.7
CC(C)(Sc1cc(C(C)(C)C)c(O)c(C(C)(C)C)c1)Sc1cc(C(C)(C)C)c(O)c(C(C)(C)C)c1 | -2.01 ± 8.5
CSCCC(NC(C)=O)C(=O)Oc1ccc2c3c(c(=O)oc2c1)CCCC3 (stereo unspecified) | -1.07 ± 0.87
C[N+](C)(C)CCOP(=O)(O)OP(=O)(O)OC[C@H]1O[C@@H](n2ccc(N)nc2=O)[C@H](O)[C@@H]1O | -3.79 ± 4.1
COc1ccc(-c2c(NC(=O)c3ccco3)n(C)c3ccccc3c2=O)cc1 | -0.968 ± 2.7
OC(CCCN1CCC(O)(c2ccc(Cl)cc2)CC1)c1ccc(F)cc1 (stereo unspecified) | -5.07 ± 4.1
CN1CCC(=C2c3ccccc3CC(=O)c3sccc32)CC1 | -2.13 ± 3.6
COc1ccc(NC(=S)N2CCN(CCN3C(=O)c4cccc5cccc(c45)C3=O)CC2)cc1 | 1.19 ± 0.65
COc1ccccc1N1CCN(CC(O)COc2cccc3ccccc23)CC1 (stereo unspecified) | -8.19 ± 1.9
COc1cc2c(cc1OC)-c1cc(OCc3ccccc3Cl)nc(=O)n1CC2 | -0.322 ± 1.2
Cc1ccc2c(CC(=O)O)coc2c1 | -1.36 ± 1.1
CCOC(=O)NN1C(=O)c2ccccc2NC1c1ccc(OC)c(OC)c1 (stereo unspecified) | 0.7423 ± 0.0022
COc1cc(OC)c(C(=O)CCCN2CCCC2)c(OC)c1 | -7.12 ± 15
CCN1CCn2c3c(c4cc(Cl)ccc42)CCCC31 (stereo unspecified) | 6.49 ± 1.6
C[C@]12C=CC(=O)C=C1CCC1C3CC[C@](O)(C(=O)CO)[C@@]3(C)CC3OC312 (stereo partly specified) | -7.42 ± 5.5
O=C1C=CC(=O)C(C2=C3C(=O)N(CCc4ccccc4)CC(=O)N3CCC2)=C1 | -42.7 ± 2.4
COc1ccccc1-c1c(C(F)(F)F)oc2cc(OC(=O)c3ccc([N+](=O)[O-])cc3)ccc2c1=O | 26.6 ± 3.1
CCC(NC(C)C)C(O)c1ccc(O)c(O)c1 (stereo unspecified) | -6.27 ± 12
CC(C)C1CC(CCNCc2ccc(N(C)C)cc2)(c2ccccc2)CCO1 (stereo unspecified) | -4.73 ± 11

Structure (SMILES) | CD40L-induced NF-kB luciferase activity
CN1CCc2cccc3c2[C@H]1Cc1ccc(O)c(O)c1-3 | -15.5 ± 14
CCOc1ccc(OCCSc2nc3ccccc3[nH]2)cc1 | 16 ± 4
c1cnc2c(c1)ccc1cccnc12 | -7.58 ± 0.49
CC1(C)CC(=O)c2cc(O)ccc2O1 | -0.318 ± 0.62
Cc1ccc2nc(N=C(N)N)nc(C)c2c1 | 7.05 ± 1.1
COc1cc(C(=O)N/C(=C\c2cn(C)c3ccccc23)C(=O)NCCCO)cc(OC)c1OC | 3.2 ± 3.9
CCn1ccnc1CN(C)Cc1cn(-c2cccc(C)c2)nc1-c1cccc(F)c1 | -2.44 ± 2.7
Cc1ccc(-c2nn(-c3cccc(F)c3)cc2CN2CCN(c3ccccn3)CC2)o1 | -0.649 ± 2.2
COc1cc(C2Nc3ccccc3C(=O)N2c2ccccc2)ccc1O (stereo unspecified) | 28.6 ± 3
N/C(=N\OC(=O)CCCOc1ccc(Cl)cc1Cl)c1ccccn1 | 4.49 ± 1
Cc1cc(Cl)cc2c1NC(=O)[C@]21[C@@H]2C(=O)N(Cc3ccccc3)C(=O)[C@@H]2[C@@H]2CCCN21 | -2.34 ± 3.9
NC12CC3CC(CC(C3)C1)C2 | -8.84 ± 12
Clc1ccc(COC(Cn2ccnc2)c2ccc(Cl)cc2Cl)c(Cl)c1 (stereo unspecified) | -10.8 ± 1.1
O=C(Nc1cccc(Cl)c1)N1CCN2C(=O)c3ccccc3C12c1ccccc1 (stereo unspecified) | 2.79 ± 2.5
Cc1nc2ccccc2n1CC(=O)NC1CCCC1 | -7.44 ± 4.4
Cc1cccc(-n2c(Cc3ccccc3)n[nH]c2=S)c1 | 1.39 ± 6.7
O[C@@H](CNC[C@H](O)c1ccccc1)c1ccccc1 | -6.32 ± 1.5
CN1CCN(C2=Nc3cc(Cl)ccc3Nc3ccccc32)CC1 | -0.132 ± 1.1
O=C(CS(=O)(=O)c1ccccc1)c1ccc2c(c1)OCCO2 | 47.4 ± 11
Cc1cn([C@H]2C[C@H](N=[N+]=[N-])[C@@H](CO)O2)c(=O)[nH]c1=O | -2.58 ± 1.1
